In the RNAGym collection of RNA variant scans (doi:10.7554/elife.90254):
The source gives no read counts; variants with many changes may rest on few reads.

B1: OR4K15 (parent)
chain: GUUAACGGUCAUAGGCCAUGGAAACUAGGAGCACCAUUUCGCUGCCAGUGAAGAAAUGAACAAAGAAAAUCUGGGCCAGGCAGGCAUCAAAAGAAAUAGUCUUGCGCUCAACCAGAAAGUCUGUAAUCAUUUUAAGGGUA

Variants of: B1
Test: self-cleavage, relative activity (ratio to wild type); higher = more cleavage; in vitro, sequencing; the parent is a self-cleaving ribozyme

Question: With GUUAACGGUCAUAGGCCAUGGAAGCUAGGAGCACCAUUUCGCUGCCAGUGAAGGAAUGAACAAGGAAAAUCUGGGCCAGGCAGGCAUCAAAAGAAAUAGUCUUGCGCUCAACCAGAAAGUCUGUAAUCAUUUUAAGGGUA [A24G A54G A64G] as the variant, how does the self-cleavage read?
Answer: Its self-cleavage is 1.35.

Question: For GUUAACGGUCAUAGGCCAUGGAAGCUAGGAGCACCAUUUCGCUGCCAGUGUAGAAAUGAACAAAGAAAAUCUGGGCCAGGCAGGCAUCAAAAGAAAUGGUCCUGCGCUCAACCAGAAAGUCUGUAAUCAUUUUAAGGGUA [A24G A51U A98G U102C], which self-cleavage is on record?
Answer: Its self-cleavage is 1.04.

Question: For GUUAACGGUCAUAGGCCAUGGAAGCUAGGAGCACCAUUUCGCUGCCAGUGAUGAAAUGAACAAAGAAAAUCUGGGCCAGGCAGGCAUCAAAAGAAAUAGUCUUGCGCUCAACCAGAAAGUCUGUAAUCACUUUAAGGGUA [A24G A52U U130C], which self-cleavage is on record?
Answer: The self-cleavage was 1.06.

Question: Which self-cleavage does the source give for GUUAACGGUCAUAGGCCAUGGAAGCUAGGAGCACCAUUUCGCUGCCAGUGUAGAAAUGAACAAAGAAGAUCUGGGCCAGGCAGGCAUCAAAAGAAAUAGUCUUGCGCUCAACCAGAAAGUCUGUAAUCAUUUUAAGGGUA [A24G A51U A68G] here?
Answer: Its self-cleavage is 1.36.

Question: For GUUAACGGUCAUAGGCCAUGGAAGCUAGGAGCACCAUUUCGCUGCCAGUGAAGGAAUGAACAAAGAAAAUCUGGGCCAGGCAGGCAUCAAAUGAAAUAGUCUUGCGCUCAACCAGAAAGUCUGUAAUCAUUUUAAGGGUA [A24G A54G A92U], which self-cleavage is on record?
Answer: Its self-cleavage is 1.64.

Question: For GUUAACGGUCAUAGGCCAUGGAAGCUAGGGGCACCAUUUCGCUGCCAGUGAAGAAAUGAACAAAGAAAAUCUGGGCCAGGCAGGCAUCAAAAGAAAUAGUCUUGCGCUCAACCAGAAAGUCUGCAACCAUUUUAAGGGUA [A24G A30G U124C U127C], which self-cleavage is on record?
Answer: The self-cleavage was 0.69.

Question: With GUUAACGGUCAUAGGCCAUGGAAGCUAGGGGCACCAUUUCGCUGCCGGUGAAGAGAUGAACAAAGAAAAUCUGGGCCAGGCAGGCAUCAAAAGGAAUAGUCUUGCGCUCAACCAGAAAGUCUGUAAUCAUUUUAAGGGUA [A24G A30G A47G A55G A94G] as the variant, how does the self-cleavage read?
Answer: The self-cleavage was 0.56.

Question: Which self-cleavage does the source give for GUUAACGGUCAUAGGCCAUGGAAGCUAGGAGCACCGUUUCGCUGCCGGUGAAGAAAUGAACAAAGAAAAUCUGGGCCAGGCCGGCAUCAAAAGAAAUAGUCUUGCGCUCAACCAGAAAGUCUGUAAUCAUUUUAAGGGUA [A24G A36G A47G A82C] here?
Answer: The self-cleavage was 0.03.

Question: For GUUAACGGUCAUAGGCCAUGGAAGCUAGGAGCACCAUUUCGCUGCCAGUGAAGAGAUGAACAAGGAAAAUCUGGGCCAGGCAGGCAUCAAAAGAAAUAGUCUUGCGCUCAACCAGAAAGUCUGUAAUCAUUUUAAGGGUA [A24G A55G A64G], which self-cleavage is on record?
Answer: Its self-cleavage is 1.

Question: With GUUAACGGUCAUAGGCCAUGGAAGCUAGGUGCACCAUUUCGCUGCCAGUGAAGAAAUGAACAAAGAAAAUCUGGGCCAGGCAGGCAUCAAAAGAAAUAGUCUUGCGCUCAACCAGAAAGUCUGUAACCAUUUUAAGGGUA [A24G A30U U127C] as the variant, how does the self-cleavage read?
Answer: The self-cleavage was 0.27.

Question: With GUUAACGGUCAUAGGCCAUGGAAGCUAGGAGCACCGUUUCGCUACCAGUGAAGAAAUGAACAAGGAAAAUCUGGGCCAGGCAGGCAUCAAAAGAAAUAGUCUUGCACUCAACCAGAAGGUCUGUAAUCAUUUUAAGGGUA [A24G A36G G44A A64G G106A A118G] as the variant, how does the self-cleavage read?
Answer: The self-cleavage was 0.01.

Question: With GUUAACGGUCAUAGGCCAUGGAAGCUAGGAGCACCGUUUCGCUGCCAGUGAAGAAAUGAACAAAGAAAAUCUGGGCCAGGCAGGCAUCAAAAGAAAUAGUCUUGCGCUCAACCAGAAAGUCCGUAAUCAUUUUAAGGGCA [A24G A36G U122C U139C] as the variant, how does the self-cleavage read?
Answer: Its self-cleavage is 0.28.

Question: Which self-cleavage does the source give for GUUAACGGUCAUAGGCCAUGGAAGCUAGGAGCCCCAUUUCGCUGCCAGUGAAGAGAUGAACAAAGAAAAUCUGGGCCAGGCAGGCAUCAAAAGAAAUAGUCUUGCGCCCAACCAGAGAGUCUGUAAUCAUUCUAAGGGUA [A24G A33C A55G U108C A117G U132C] here?
Answer: Its self-cleavage is 0.01.

Question: Which self-cleavage does the source give for GUUAACGGUCAUAGGCCAUGGAAGCUAGGAGCACCAUUUCGCUGCCAGUGAUGAAAUGAACAAAGAAAAUCUGGGCCAGGCAGGCAUCGAAAGAAAUAGUCUUGCGCUCAACCAGAAAGACUGUAAUCAUUUUAAGGGUA [A24G A52U A89G U120A] here?
Answer: The self-cleavage was 1.02.

Question: Which self-cleavage does the source give for GUUAACGGUCAUAGGCCAUGGAAGCUAGGGGCACCAUUUCGCUGCCAGUAAAGAAAUGAACAAAGAAAAUCUGGGCCAGGCAGGCAUCAAGAGAAAUAGUCUUGCGCUCAACCAGGAAGUCUGUAAUCAUUUUAAGGGUA [A24G A30G G50A A91G A116G] here?
Answer: Its self-cleavage is 0.15.

Question: For GUUAACGGUCAUAGGCCAUGGAAGCUAGGAGCACCAUUUCGCUGCCAGUGAGGAAAUGAACAAAGAAAAUCUGGGCCAGGCAGGCAUCAAAAGAAAUAGUCUUGCGCUCAACCAGAAAGACUGUAAUCAUUUUAAGGGUA [A24G A52G U120A], which self-cleavage is on record?
Answer: Its self-cleavage is 1.47.

Question: With GUUAACGGUCAUAGGCCAUGGAAGCUAGGAGCUCCAUUUCGCUGCCAGUGAAGAAAUGAACAAAGAAAAUCUGGGCCAGGCAGGCAUCAAGAGAAAUAGUCUUGCGCUCAACCAGAAAGUCUGUAAUCAUUUUAAGGGUA [A24G A33U A91G] as the variant, how does the self-cleavage read?
Answer: The self-cleavage was 0.88.

Question: Which self-cleavage does the source give for GUUAACGGUCAUAGGCCAUGGAAGCUAGGAGCACCAUUUCGCUGCCUGUGAAGAAAUGAACAAAGAAAAUCUGGGCCAGGCAGGCAUCAAAAGAAAUAGUCCUGCGCUCAACCAGAAAGUCUGUAAUCAUUUUAUGGGUA [A24G A47U U102C A135U] here?
Answer: The self-cleavage was 1.2.

Question: With GUUAACGGUCAUAGGCCAUGGAAGCUAGGAGCGCCAUUUCGCUGCCAGUGAAGAAAUGAACAAAGAAAACCUGGGCCAGGCAGGCAUCAAAAGAAAUAGUCUUGCGCUCAACCAGAGAGUCUGUAAUCAUUUUAAGGGUA [A24G A33G U70C A117G] as the variant, how does the self-cleavage read?
Answer: Its self-cleavage is 0.26.

Question: With GUUAACGGUCAUAGGCCAUGGAAGCUAGGAGCGCCAUUUCGCUGCCAGUGAAGAAAUGAACAAAGAAAAUCUGGGCCAGGCAGGCAUCAAAAGAAAUAGUCUUGCGCUCAACCAGAAAGUCCGUAAUCAUUUUAAGGGUA [A24G A33G U122C] as the variant, how does the self-cleavage read?
Answer: The self-cleavage was 1.28.

Question: For GUUAACGGUCAUAGGCCAUGGAAGCUUGGAGCACCAUUUCGCUGCCAGUGAAGAAAUGAACAAAGAAAAUCUGGGCCAGGCAGGCGUCAAAAGAAAUAGUCUUGCGCUCAACCGGAAAGUCUGUAAUCAUUUUAAGGGUA [A24G A27U A86G A114G], which self-cleavage is on record?
Answer: The self-cleavage was 0.47.
